# The other results are listed elsewhere or left out.
# B1: NKR-PIC (Mus musculus) (protein)
# chain: GTGQKPSREKCCVFIQENLNKTTDCSVNLECPQDWLLHRDKCFHVSQVSNTWEEGQADCGRKGATLLLIQDQEELRFLLDSIKEKYNSFWIGLRFTLPDMNWKWINGTTFNSDVLKITGVTENGSCASILGDKVTPESCASDNRWICQKELNHETPSNDSGT
# Key:
# Assay in all cases: glycan array binding signal (z-score within array); higher = stronger binding
# Settings in all cases: glycan notation: IUPAC condensed, linker removed
# [1] = target: GlcNAc(b1-4)GlcNAc(b1-4)GlcNAc(b1-4)GlcNAc(b1-4)GlcNAc
# Procedure, shortened: (§1)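 Glycan array data came from 3228 arrays in the Consortium for Functional Glycomics database, and only arrays with an available protein sequence were kept. Glycan names were put into IUPAC-condensed notation, and columns mapping to the same glycan were averaged. The binding signal is a within-array Z-score, averaged across arrays of one protein sequence run at different concentrations or buffers and across linkers. A negative Z-score can be read as non-binding.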
# [2] = target: GlcNAc(b1-4)GlcNAc(b1-4)GlcNAc(b1-4)GlcNAc(b1-4)GlcNAc(b1-4)GlcNAc
# Procedure, shortened: as §1
# [3] = target: GlcNAc(b1-4)[GlcNAc(b1-6)]GalNAc
# Procedure, shortened: as §1
# [4] = target: GlcNAc(b1-6)Gal(b1-4)GlcNAc
# Procedure, shortened: as §1
# [5] = target: GlcNAc(b1-6)GalNAc
# Procedure, shortened: as §1
# [6] = target: GlcNAc6S(b1-3)Gal(b1-4)GlcNAc
# Procedure, shortened: as §1
# [7] = target: Kdn(a2-3)Gal(b1-3)GalNAc
# Procedure, shortened: as §1
# [8] = target: Kdn(a2-3)Gal(b1-3)GlcNAc
# Procedure, shortened: as §1
# [9] = target: Kdn(a2-3)Gal(b1-4)Glc
# Procedure, shortened: as §1
# [10] = target: Kdn(a2-3)Gal(b1-4)GlcNAc
# Procedure, shortened: as §1
# [11] = target: Kdn(a2-3)Gal(b1-4)[Fuc(a1-3)]GlcNAc
# Procedure, shortened: as §1
# [12] = target: Kdn(a2-6)Gal(b1-4)GlcNAc
# Procedure, shortened: as §1
# [13] = target: Man(a1-2)Man(a1-2)Man(a1-3)Man
# Procedure, shortened: as §1
# [14] = target: Man(a1-2)Man(a1-2)Man(a1-6)[Man(a1-3)]Man
# Procedure, shortened: as §1
# [15] = target: Man(a1-2)Man(a1-3)Man
# Procedure, shortened: as §1
# [16] = target: Man(a1-2)Man(a1-3)[Man(a1-2)Man(a1-6)]Man
# Procedure, shortened: as §1
# [17] = target: Man(a1-2)Man(a1-3)[Man(a1-2)Man(a1-6)]Man(a1-6)[Man(a1-2)Man(a1-2)Man(a1-3)]Man
# Procedure, shortened: as §1
# [18] = target: Man(a1-2)Man(a1-3)[Man(a1-2)Man(a1-6)]Man(a1-6)[Man(a1-2)Man(a1-2)Man(a1-3)]Man(b1-4)GlcNAc(b1-4)GlcNAc
# Procedure, shortened: as §1
# [19] = target: Man(a1-2)Man(a1-3)[Man(a1-6)]Man(a1-6)[Man(a1-2)Man(a1-3)]Man(b1-4)GlcNAc(b1-4)GlcNAc
# Procedure, shortened: as §1
# [20] = target: Man(a1-2)Man(a1-6)[Man(a1-3)]Man(a1-6)[Man(a1-2)Man(a1-2)Man(a1-3)]Man
# Procedure, shortened: as §1
# [21] = target: Man(a1-2)Man(a1-6)[Man(a1-3)]Man(a1-6)[Man(a1-2)Man(a1-2)Man(a1-3)]Man(b1-4)GlcNAc(b1-4)GlcNAc
# Procedure, shortened: as §1
# [22] = target: Man(a1-3)[Man(a1-6)]Man
# Procedure, shortened: as §1
# [23] = target: Man(a1-3)[Man(a1-6)]Man(a1-6)[Man(a1-2)Man(a1-3)]Man(b1-4)GlcNAc(b1-4)GlcNAc
# Procedure, shortened: as §1
# [24] = target: Man(a1-3)[Man(a1-6)]Man(a1-6)[Man(a1-3)]Man
# Procedure, shortened: as §1
# [25] = target: Man(a1-3)[Man(a1-6)]Man(a1-6)[Man(a1-3)]Man(b1-4)GlcNAc(b1-4)GlcNAc
# Procedure, shortened: as §1
# [26] = target: Man(a1-3)[Man(a1-6)]Man(b1-4)GlcNAc(b1-4)GlcNAc
# Procedure, shortened: as §1
# [27] = target: Man(a1-3)[Man(a1-6)]Man(b1-4)GlcNAc(b1-4)[Fuc(a1-6)]GlcNAc
# Procedure, shortened: as §1
# [28] = target: Man(a1-6)Man
# Procedure, shortened: as §1
# [29] = target: Man(b1-4)GlcNAc
# Procedure, shortened: as §1
# [30] = target: MurNAc(b1-4)GlcNAc
# Procedure, shortened: as §1
# [31] = target: Neu5Ac(a2-3)Gal
# Procedure, shortened: as §1
# [32] = target: Neu5Ac(a2-3)Gal(b1-3)GalNAc
# Procedure, shortened: as §1
# [33] = target: Neu5Ac(a2-3)Gal(b1-3)GalNAc(b1-3)Gal(a1-4)Gal(b1-4)Glc
# Procedure, shortened: as §1
# [34] = target: Neu5Ac(a2-3)Gal(b1-3)GalNAc(b1-4)[Neu5Ac(a2-3)]Gal(b1-4)Glc
# Procedure, shortened: as §1
# [35] = target: Neu5Ac(a2-3)Gal(b1-3)GalNAc(b1-4)[Neu5Ac(a2-8)Neu5Ac(a2-3)]Gal(b1-4)Glc
# Procedure, shortened: as §1
# [36] = target: Neu5Ac(a2-3)Gal(b1-3)GalNAc6S
# Procedure, shortened: as §1
# [37] = target: Neu5Ac(a2-3)Gal(b1-3)GlcNAc
# Procedure, shortened: as §1
# [38] = target: Neu5Ac(a2-3)Gal(b1-3)GlcNAc(b1-2)Man
# Procedure, shortened: as §1
# [39] = target: Neu5Ac(a2-3)Gal(b1-3)GlcNAc(b1-2)Man(a1-3)[GlcNAc(b1-4)][Neu5Ac(a2-3)Gal(b1-3)GlcNAc(b1-2)Man(a1-6)]Man(b1-4)GlcNAc(b1-4)GlcNAc
# Procedure, shortened: as §1
# [40] = target: Neu5Ac(a2-3)Gal(b1-3)GlcNAc(b1-2)Man(a1-3)[Neu5Ac(a2-3)Gal(b1-3)GlcNAc(b1-2)Man(a1-6)]Man(b1-4)GlcNAc(b1-4)GlcNAc
# Procedure, shortened: as §1
# [41] = target: Neu5Ac(a2-3)Gal(b1-3)GlcNAc(b1-3)Gal(b1-3)GlcNAc
# Procedure, shortened: as §1
# [42] = target: Neu5Ac(a2-3)Gal(b1-3)GlcNAc(b1-3)Gal(b1-4)GlcNAc
# Procedure, shortened: as §1
# [43] = target: Neu5Ac(a2-3)Gal(b1-3)GlcNAc(b1-3)GalNAc
# Procedure, shortened: as §1
# [44] = target: Neu5Ac(a2-3)Gal(b1-3)GlcNAc(b1-4)Gal(b1-4)Glc
# Procedure, shortened: as §1
# [45] = target: Neu5Ac(a2-3)Gal(b1-3)GlcNAc(b1-6)GalNAc
# Procedure, shortened: as §1
binder,measurement,setting,value
B1,glycan array binding signal (z-score),[1],2.15
same,glycan array binding signal (z-score),[2],4.62
same,glycan array binding signal (z-score),[3],1.37
same,glycan array binding signal (z-score),[4],2.38
same,glycan array binding signal (z-score),[5],0.849
same,glycan array binding signal (z-score),[6],-0.053
same,glycan array binding signal (z-score),[7],-0.288
same,glycan array binding signal (z-score),[8],-0.298
same,glycan array binding signal (z-score),[9],-0.305
same,glycan array binding signal (z-score),[10],-0.346
same,glycan array binding signal (z-score),[11],-0.345
same,glycan array binding signal (z-score),[12],-0.321
same,glycan array binding signal (z-score),[13],-0.291
same,glycan array binding signal (z-score),[14],-0.394
same,glycan array binding signal (z-score),[15],-0.25
same,glycan array binding signal (z-score),[16],-0.264
same,glycan array binding signal (z-score),[17],-0.259
same,glycan array binding signal (z-score),[18],-0.285
same,glycan array binding signal (z-score),[19],-0.325
same,glycan array binding signal (z-score),[20],-0.367
same,glycan array binding signal (z-score),[21],-0.366
same,glycan array binding signal (z-score),[22],-0.357
same,glycan array binding signal (z-score),[23],-0.311
same,glycan array binding signal (z-score),[24],-0.401
same,glycan array binding signal (z-score),[25],-0.374
same,glycan array binding signal (z-score),[26],-0.292
same,glycan array binding signal (z-score),[27],-0.37
same,glycan array binding signal (z-score),[28],-0.327
same,glycan array binding signal (z-score),[29],-0.273
same,glycan array binding signal (z-score),[30],4.79
same,glycan array binding signal (z-score),[31],-0.358
same,glycan array binding signal (z-score),[32],-0.34
same,glycan array binding signal (z-score),[33],-0.281
same,glycan array binding signal (z-score),[34],-0.3
same,glycan array binding signal (z-score),[35],-0.336
same,glycan array binding signal (z-score),[36],-0.375
same,glycan array binding signal (z-score),[37],-0.301
same,glycan array binding signal (z-score),[38],-0.317
same,glycan array binding signal (z-score),[39],-0.369
same,glycan array binding signal (z-score),[40],-0.39
same,glycan array binding signal (z-score),[41],-0.343
same,glycan array binding signal (z-score),[42],0.067
same,glycan array binding signal (z-score),[43],-0.295
same,glycan array binding signal (z-score),[44],-0.365
same,glycan array binding signal (z-score),[45],-0.359
